{
  "source": "patent US20100137158A1",
  "about": "(WISCONSIN ALUMNI RESEARCH FOUNDATION, published 2010)",
  "key": {"[1]": {"target": "T1, hen egg lysozyme (biotinylated) (hen, UniProt P00698 19-147, biotinylated)", "T1 construct": "also called irrelevant biotinylated ligand", "T1 sequence (P00698 19-147)": "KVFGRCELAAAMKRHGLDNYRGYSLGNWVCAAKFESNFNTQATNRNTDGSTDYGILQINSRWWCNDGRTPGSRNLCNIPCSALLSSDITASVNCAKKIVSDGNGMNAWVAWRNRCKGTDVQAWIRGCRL", "assay": "yeast surface display, flow cytometry"}, "[2]": {"target": "T2, streptavidin-phycoerythrin conjugate (UniProt P22629 37-163)", "assay": "yeast surface display titration, flow cytometry; triplicate titrations, KD ± SD"}, "[3]": {"target": "T2, streptavidin-phycoerythrin conjugate", "T2 sequence (P22629 37-163)": "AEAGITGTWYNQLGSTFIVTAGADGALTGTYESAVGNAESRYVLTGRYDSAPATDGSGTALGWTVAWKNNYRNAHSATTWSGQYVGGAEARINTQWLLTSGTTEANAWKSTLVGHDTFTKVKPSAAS", "assay": "yeast surface display titration, flow cytometry; single sample titration"}, "[4]": {"target": "T3, biotin-phycoerythrin conjugate", "T3 construct": "also called Biotin-PE; biotinylated PE", "assay": "yeast surface display titration, flow cytometry; single sample titration"}, "TrkA": {"target": "T4, TrkA (UniProt P04629 33-423)", "T4 construct": "also called tyrosine kinase neurotrophin receptor TrkA; not shown: not described", "assay": "yeast surface display (data not shown)"}, "[5]": {"target": "T5, recombinant human TrkC/Fc (human, UniProt Q16288 32-429)", "T5 construct": "Bought; not shown: Fc", "T5 sequence (looked up)": "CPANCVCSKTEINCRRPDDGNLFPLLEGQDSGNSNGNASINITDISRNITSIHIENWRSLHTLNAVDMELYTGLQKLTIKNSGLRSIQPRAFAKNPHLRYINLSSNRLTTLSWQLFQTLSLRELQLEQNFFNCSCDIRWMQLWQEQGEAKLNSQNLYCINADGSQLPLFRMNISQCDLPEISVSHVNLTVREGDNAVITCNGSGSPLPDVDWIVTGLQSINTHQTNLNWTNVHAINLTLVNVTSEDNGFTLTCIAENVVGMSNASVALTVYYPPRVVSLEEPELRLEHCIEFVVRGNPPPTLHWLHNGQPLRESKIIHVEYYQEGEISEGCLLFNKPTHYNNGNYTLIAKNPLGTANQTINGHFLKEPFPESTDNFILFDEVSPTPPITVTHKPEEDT", "assay": "yeast surface display (data not shown)"}, "[6]": {"target": "T6, Recombinant monomeric human tyrosine kinase receptor B (TrkB) (human, UniProt Q16620 32-430, biotinylated using Sulfo-NHS-LC-biotin (unmodified in the check of paragraph 109))", "T6 construct": "extracellular domain; Bought (R & D Systems); also called monomeric extracellular domain of a neurotrophin receptor (TrkB); biotinylated monomeric TrkB", "T6 sequence (Q16620 32-430)": "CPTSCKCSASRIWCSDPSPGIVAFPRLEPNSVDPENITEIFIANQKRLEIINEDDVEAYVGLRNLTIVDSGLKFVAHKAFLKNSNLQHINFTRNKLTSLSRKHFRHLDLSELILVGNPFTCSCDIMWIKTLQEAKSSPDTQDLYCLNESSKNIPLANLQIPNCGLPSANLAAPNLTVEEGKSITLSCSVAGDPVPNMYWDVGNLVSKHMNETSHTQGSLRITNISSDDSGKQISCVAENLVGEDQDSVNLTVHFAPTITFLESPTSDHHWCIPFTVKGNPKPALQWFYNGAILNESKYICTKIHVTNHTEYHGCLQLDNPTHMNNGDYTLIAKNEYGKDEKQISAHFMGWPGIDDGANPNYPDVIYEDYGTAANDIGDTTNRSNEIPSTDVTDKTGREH", "assay": "yeast surface display titration (FIG. 2C, single sample), flow cytometry"}, "[7]": {"target": "T6, Recombinant monomeric human tyrosine …", "assay": "yeast surface display titration, flow cytometry; triplicate titrations, KD ± SD"}, "[8]": {"target": "T6, Recombinant monomeric human tyrosine …", "assay": "soluble purified T3 titrated on TrkB-loaded beads, intrinsic GFP fluorescence by flow cytometry"}, "[9]": {"target": "T6, Recombinant monomeric human tyrosine …", "assay": "solution phase competition: soluble T3 with soluble TrkB, unbound TrkB measured with yeast displaying T3 by FACS"}, "[10]": {"target": "T6, Recombinant monomeric human tyrosine …", "assay": "yeast surface display titration of single-loop variant, flow cytometry"}},
  "data": [
    {"binder": "2.7 GFAb (designed binder, Scaffold 20-5-8) MSKGEELFTGVVPILVELNGDVNGHKFSVSGEGEGDATHGKLTLKFICTTGKLPVPWPTLVTTLGYGVQCFARYPDHMKQHDFFKSTMPEGYVQERTIFFKDLKVFSSLRYHVTSDGTYKTRAEVKFEGGTLVNRIELKGIDFKEDGNILGHKLEYNYNSHNVYIMADKQKNGIKANFKIRHNIKSRLRMDDTNPTRDGSVQLADHYQQNTPIGDGPVLLPDNHYLSTQSKLSKDPNEKRDHMVLVEFVTAAGITHGMDELYK", "values": [
      {"measurement": "binding result", "setting": "[1]", "result": "no binding (tested: 500 nM)"},
      {"measurement": "Kd", "setting": "[2]", "result": 140, "unit": "nM"}
    ]},
    {"binder": "2.17 GFAb (designed binder, Scaffold 20-5-8) MSKGEELFTGVVPILVELNGDVNGHKFSVSGEGEGDATHGKLTLKFICTTGKLPVPWPTLVTTLGYGVQCFARYPDHMKQHDFFKSTMPEGYVQERTIFFKDLKKARMRLFLMTSDGTYKTRAEVKFEGGTLVNRIELKGIDFKEDGNILGHKLEYNYNSHNVYIMADKQKNGIKANFKIRHNIKSREYGDTLLSTRDGSVQLADHYQQNTPIGDGPVLLPDNHYLSTQSKLSKDPNEKRDHMVLVEFVTAAGITHGMDELYK", "values": [
      {"measurement": "binding result", "setting": "[1]", "result": "no binding (tested: 500 nM)"},
      {"measurement": "Kd", "setting": "[3]", "result": 110, "unit": "nM"}
    ]},
    {"binder": "G7 GFAb (designed binder, Scaffold 20-5-8) MSKGEELFTGVVPILVELNGDVNGHKFSVSGEGEGDATHGKLTLKFICTTGKLPVPWPTLVTTLGYGVQCFARYPDHMKQHDFFKSTMPEGYVQERTIFFKDLKNVIYPFLYATSDGTYKTRAEVKFEGGTLVNRIELKGIDFKEDGNILGHKLEYNYNSHNVYIMADKQKNGIKANFKIRHNIKSRRVTKTKHKTRDGSVQLADHYQQNTPIGDGPVLLPDNHYLSTQSKLSKDPNEKRDHMVLVEFVTAAGITHGMDELYK", "values": [
      {"measurement": "binding result", "setting": "[1]", "result": "no binding (tested: 500 nM)"}
    ]},
    {"binder": "G8 GFAb (designed binder, Scaffold 20-5-8) MSKGEELFTGVVPILVELNGDVNGHKFSVSGEGEGDATHGKLTLKFICTTGKLPVPWPTLVTTLGYGVQCFARYPDHMKQHDFFKSTMPEGYVQERTIFFKDLKSHCLFRKCYTSDGTYKTRAEVKFEGGTLVNRIELKGIDFKEDGNILGHKLEYNYNSHNVYIMADKQKNGIKANFKIRHNIKSRARSIRMKVTRDGSVQLADHYQQNTPIGDGPVLLPDNHYLSTQSKLSKDPNEKRDHMVLVEFVTAAGITHGMDELYK", "values": [
      {"measurement": "binding result", "setting": "[1]", "result": "no binding (tested: 500 nM)"}
    ]},
    {"binder": "GFAb 5 (Biotin-PE selection) (designed binder, Scaffold 20-5-8) MSKGEELFTGVVPILVELNGDVNGHKFSVSGEGEGDATHGKLTLKFICTTGKLPVPWPTLVTTLGYGVQCFARYPDHMKQHDFFKSTMPEGYVQERTIFFKDLKSCSWCLFTLTSDGTYKTRAEVKFEGGTLVNRIELKGIDFKEDGNILGHKLEYNYNSHNVYIMADKQKNGIKANFKIRHNIKSRKNQMGMGKTRDGSVQLADHYQQNTPIGDGPVLLPDNHYLSTQSKLSKDPNEKRDHMVLVEFVTAAGITHGMDELYK", "values": [
      {"measurement": "binding result", "setting": "[1]", "result": "no binding (tested: 500 nM)"},
      {"measurement": "Kd", "setting": "[4]", "result": 260, "unit": "nM"}
    ]},
    {"binder": "GFAb 16 (Biotin-PE selection) (designed binder, Scaffold 20-5-8) MSKGEELFTGVVPILVELNGDVNGHKFSVSGEGEGDATHGKLTLKFICTTGKLPVPWPTLVTTLGYGVQCFARYPDHMKQHDFFKSTMPEGYVQERTIFFKDLKNCRWCTYYLTSDGTYKTRAEVKFEGGTLVNRIELKGIDFKEDGNILGHKLEYNYNSHNVYIMADKQKNGIKANFKIRHNIKSRSTSNWMRMTRDGSVQLADHYQQNTPIGDGPVLLPDNHYLSTQSKLSKDPNEKRDHMVLVEFVTAAGITHGMDELYK", "values": [
      {"measurement": "binding result", "setting": "[1]", "result": "no binding (tested: 500 nM)"},
      {"measurement": "Kd", "setting": "[4]", "result": 190, "unit": "nM"}
    ]},
    {"binder": "T3 GFAb (designed binder, The format is named under assay in each row; also called GFAb T3) MSKGEELFTGVVPILVELNGDVNGHKFSVSGEGEGDATHGKLTLKFICTTGKLPVPWPTLVTTLGYGVQCFARYPDHMKQHDFFKSTMPEGYVQERTIFFKDLKVINPFTVRSTSDGTYKTRAEVKFEGGTLVNRIELKGIDFKEDGNILGHKLEYNYNSHNVYIMADKQKNGIKANFKIRHNIKSRNAWVVHRRTRDGSVQLADHYQQNTPIGDGPVLLPDNHYLSTQSKLSKDPNEKRDHMVLVEFVTAAGITHGMDELYK", "values": [
      {"measurement": "binding result", "setting": "[1]", "result": "no binding (tested: 500 nM)"},
      {"measurement": "binding result", "setting": "TrkA", "result": "no binding"},
      {"measurement": "binding result", "setting": "[5]", "result": "no binding"},
      {"measurement": "Kd", "setting": "[6]", "result": 2, "unit": "nM"},
      {"measurement": "Kd", "setting": "[7]", "result": 3.2, "unit": "nM"},
      {"measurement": "Kd", "setting": "[8]", "result": 34, "unit": "nM"},
      {"measurement": "Kd", "setting": "[9]", "result": "~10", "unit": "nM"}
    ]},
    {"binder": "T3 single-loop GFAb with the T3 172-173 binding loop in the 20-5-8 scaffold (surrogate loop at 102-103) (designed binder, also called single loop knock-in of T3) MSKGEELFTGVVPILVELNGDVNGHKFSVSGEGEGDATHGKLTLKFICTTGKLPVPWPTLVTTLGYGVQCFARYPDHMKQHDFFKSTMPEGYVQERTIFFKDLKQHFWSTPRTTSDGTYKTRAEVKFEGGTLVNRIELKGIDFKEDGNILGHKLEYNYNSHNVYIMADKQKNGIKANFKIRHNIKSRNAWVVHRRTRDGSVQLADHYQQNTPIGDGPVLLPDNHYLSTQSKLSKDPNEKRDHMVLVEFVTAAGITHGMDELYK", "values": [
      {"measurement": "Kd", "setting": "[10]", "result": 300, "unit": "nM"}
    ]},
    {"binder": "T3 single-loop GFAb with the T3 102-103 binding loop in the 20-5-8 scaffold (surrogate loop at 172-173) (designed binder, also called single loop knock-in of T3) MSKGEELFTGVVPILVELNGDVNGHKFSVSGEGEGDATHGKLTLKFICTTGKLPVPWPTLVTTLGYGVQCFARYPDHMKQHDFFKSTMPEGYVQERTIFFKDLKVINPFTVRSTSDGTYKTRAEVKFEGGTLVNRIELKGIDFKEDGNILGHKLEYNYNSHNVYIMADKQKNGIKANFKIRHNIKSRERDYRLDYTRDGSVQLADHYQQNTPIGDGPVLLPDNHYLSTQSKLSKDPNEKRDHMVLVEFVTAAGITHGMDELYK", "values": [
      {"measurement": "Kd", "setting": "[10]", "result": 19, "unit": "nM"}
    ]},
    {"binder": "G4 GFAb (designed binder, Scaffold 20-5-8) MSKGEELFTGVVPILVELNGDVNGHKFSVSGEGEGDATHGKLTLKFICTTGKLPVPWPTLVTTLGYGVQCFARYPDHMKQHDFFKSTMPEGYVQERTIFFKDLKRGVSKSFLLTSDGTYKTRAEVKFEGGTLVNRIELKGIDFKEDGNILGHKLEYNYNSHNVYIMADKQKNGIKANFKIRHNIKSRQGITKGYKTRDGSVQLADHYQQNTPIGDGPVLLPDNHYLSTQSKLSKDPNEKRDHMVLVEFVTAAGITHGMDELYK", "values": [
      {"measurement": "binding result", "setting": "[1]", "result": "no binding (tested: 500 nM)"}
    ]},
    {"binder": "G6 GFAb (designed binder, Scaffold 20-5-8) MSKGEELFTGVVPILVELNGDVNGHKFSVSGEGEGDATHGKLTLKFICTTGKLPVPWPTLVTTLGYGVQCFARYPDHMKQHDFFKSTMPEGYVQERTIFFKDLKRVSRFLLTTTSDGTYKTRAEVKFEGGTLVNRIELKGIDFKEDGNILGHKLEYNYNSHNVYIMADKQKNGIKANFKIRHNIKSRKSRIISSQTRDGSVQLADHYQQNTPIGDGPVLLPDNHYLSTQSKLSKDPNEKRDHMVLVEFVTAAGITHGMDELYK", "values": [
      {"measurement": "binding result", "setting": "[1]", "result": "no binding (tested: 500 nM)"}
    ]},
    {"binder": "GFAb 2 (Biotin-PE selection) (designed binder, Scaffold printed as 20-5-8 + E115K) MSKGEELFTGVVPILVELNGDVNGHKFSVSGEGEGDATHGKLTLKFICTTGKLPVPWPTLVTTLGYGVQCFARYPDHMKQHDFFKSTMPEGYVQERTIFFKDLKRGLFWPVLITSDGTYKTRAEVKFKGGTLVNRIELKGIDFKEDGNILGHKLEYNYNSHNVYIMADKQKNGIKANFKIRHNIKSRPNPVFRQNTRDGSVQLADHYQQNTPIGDGPVLLPDNHYLSTQSKLSKDPNEKRDHMVLVEFVTAAGITHGMDELYK", "values": [
      {"measurement": "binding result", "setting": "[1]", "result": "no binding (tested: 500 nM)"},
      {"measurement": "Kd", "setting": "[4]", "result": 1400, "unit": "nM"}
    ]}
  ]
}
